In PubChem BioAssay AID1159614 (National Center for Advancing Translational Sciences (NCATS), 2016):
Among all 45,000 compounds or so, about 65 (0.1%) were called active. Calls follow the shape of the dose curve; as a rule, active = well fitted activation curve with a large enough effect; inconclusive = small, poorly fitted or top-dose-only effect; inactive = no such curve, though single readings can be large or run the other way. The list shows a part of the results.

target: Galactocerebrosidase (Homo sapiens) (UniProt P54803); assay: A Novel Cell-Based Assay to Identify Small Molecules for B -Galactocerebrosidase; conditions: 145M-Twi-hGALC-G270D cells (Twitcher mouse brain line with human GALC G270D), HMU-beta-Gal fluorescence, 48 h; series mostly up to 57.5 µM; activation: at the top concentration; also: 0% is about no effect; nearly all actives have a fitted effect of over 65% in size
Method in brief: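 Brain-derived Twitcher mouse 145M-Twi cells stably expressing human GALC-G270D or wild-type GALC, treated live, then residual GALC activity read by fluorescence of HMU-b-Gal substrate (0.1 mM final) in citrate-phosphate buffer pH 5.2 with sodium taurocholate. Signal increase indicates enhancement.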

UniProt P54803, sequence (P54803 whole entry, looked up): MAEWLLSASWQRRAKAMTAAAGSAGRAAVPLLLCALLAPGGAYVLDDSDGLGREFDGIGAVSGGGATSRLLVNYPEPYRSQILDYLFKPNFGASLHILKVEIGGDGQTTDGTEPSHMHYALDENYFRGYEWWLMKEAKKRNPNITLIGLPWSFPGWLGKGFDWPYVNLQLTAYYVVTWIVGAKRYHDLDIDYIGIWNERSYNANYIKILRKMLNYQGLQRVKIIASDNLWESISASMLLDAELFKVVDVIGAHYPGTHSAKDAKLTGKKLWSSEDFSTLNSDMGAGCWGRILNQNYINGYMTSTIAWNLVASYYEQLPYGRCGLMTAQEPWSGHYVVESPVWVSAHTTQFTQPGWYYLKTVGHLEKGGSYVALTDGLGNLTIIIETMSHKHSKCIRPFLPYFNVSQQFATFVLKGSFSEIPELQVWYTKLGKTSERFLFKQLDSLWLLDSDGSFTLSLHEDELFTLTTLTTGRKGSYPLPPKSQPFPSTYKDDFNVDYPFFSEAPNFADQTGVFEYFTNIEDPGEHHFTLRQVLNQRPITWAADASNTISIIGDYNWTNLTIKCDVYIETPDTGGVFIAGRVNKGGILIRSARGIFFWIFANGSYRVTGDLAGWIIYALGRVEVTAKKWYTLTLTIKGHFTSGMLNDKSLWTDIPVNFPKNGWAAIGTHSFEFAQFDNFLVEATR

activation, inactive:
CC(C)OCCCNC(=O)c1cn(C)c2ccc(S(=O)(=O)N(C)C3CCCCC3)cc2c1=O -16.4%
COc1ccc(N2CC(C(=O)NCCS(=O)(=O)N3CCN(c4ccccc4)CC3)CC2=O)cc1 (configuration not stated) -10.5%
Cc1ccc2occ(-c3cc(-c4ccccc4)nc4c3COc3ccccc3-4)c(=O)c2c1 -10.5%
CCOC(=O)c1cc(-c2ccccc2)n(CCCC(=O)Nc2ccc(C)c(Cl)c2)c1C -12.2%
Cc1ccc(-n2c(=O)c3c(C)c(C(=O)N(C)C)sc3n(CC(=O)N(C)c3ccccc3)c2=O)cc1C -8.46%
Cc1ccc(C)c(NC(=O)CSc2nc3nccnc3c(=O)n2CCc2c[nH]c3ccccc23)c1 -13.3%
Cc1c(C(=O)N2CCCC2)oc2c1-c1nn(CC(=O)NCc3ccc(OC(C)C)cc3)cc1CC2 -10.3%
CCc1cccc(NC(=O)c2cnc(N3CCOCC3)c3ccccc23)c1 -4.22%
CN(CC(=O)Nc1ccc(OC(F)(F)F)cc1)S(=O)(=O)c1ccc2c(c1)CCC(=O)N2 -17%
CCN(CC)S(=O)(=O)c1ccc2c(c1)N(CC(=O)N1CCN(c3cccc(C)c3)C(C)C1)C(=O)CO2 (configuration not stated) -11.2%
COc1cc(C(=O)NC2(C(F)(F)F)C(=O)NC(C)=C2C#N)cc(OC)c1OC (configuration not stated) -13.8%
CCN(C(=O)CSc1nc2ccccc2c2nc(CCn3c(C)nc4ccccc43)nn12)c1cccc(C)c1 -20.1%
COc1ccc(-c2csc3nc(-c4ccc(Cl)cc4)oc(=O)c23)cc1 -17.1%
Cc1cccc(NC(=O)CCn2cnnn2)c1 8.12%
CCc1cccc(C)c1NC(=O)CN1CCN(Cc2ccccc2Cl)S1(=O)=O 5.17%
CCc1ccc(NC(=O)Cn2c(=O)c3cccn3c3ccccc32)cc1 2.14%
O=C(Nc1ccc(-c2nc3cc(Cl)ccc3o2)cc1)c1cc(Br)ccc1Cl -10.6%
Cn1c(=O)oc2cc(S(=O)(=O)NC(CC(=O)O)c3cccc(Br)c3)ccc21 (configuration not stated) -15.6%
COc1ccc(NC(=O)CSc2nnc(N)s2)cc1 -6.94%
CC(=O)c1ccc(N2CCN(C(=O)Nc3ccc(C)cc3)CC2)cc1 -6.67%
Cc1ccc(Nc2c(-c3ccc(N4CCOCC4)cc3)nc3ccc(C)cn23)cc1 8.63%
COc1cc(C(=O)Nc2ccc3nc4n(c(=O)c3c2)CCCCC4)cc(OC)c1OC -8.17%
COc1ccc(NS(=O)(=O)c2cnc(N)nc2)cc1Cl -29.9%
COc1ccc(-c2nc3ccccc3o2)cc1NC(=O)COc1cc(C)cc(C)c1 -7.52%
Cc1oc2c(c1C(=O)Nc1ccc(OC(F)(F)F)cc1)C1=NCCN1C=N2 -11.8%
O=C(COc1ccc2oc3c(c2c1)CCCC3)Nc1cccc(Br)c1 -4.24%
Cc1cc(=O)[nH]c2nnc(SCC(N)=O)n12 -20.2%
CC(=O)c1ccc(Oc2ncnc3c2oc2ccccc23)cc1 -7.35%
COc1ccc(NC(=O)CCS(=O)(=O)c2cc3c4c(c2)CCN4C(=O)CC3)c(OC)c1 -16.1%
CC1CCN(C(=O)Cn2cc(SCC(=O)NCc3ccc(F)cc3)c3ccccc32)CC1 -7.94%
COc1cc(C(=O)NCCc2sc(-c3ccc(C)cc3)nc2C)cc(OC)c1OC -18.6%
Cc1nnc(N2C(=O)c3oc4ccccc4c(=O)c3C2c2cccc(OCCC(C)C)c2)s1 (configuration not stated) -10.5%
CCCCc1ccc(C(=O)c2c(N)c(C(=O)Nc3cccc(OC)c3)c3ccccn23)cc1 -16.6%
Cc1ccccc1CN1C(=O)c2ccccc2S(=O)c2ccc(C(=O)N3CCOCC3)cc21 (configuration not stated) -15.4%
COc1ccc(NC(=O)CSc2nc3ccccc3nc2N2CCOCC2)c(OC)c1 -7.72%
Cc1ccc(-c2noc(-c3ccc(N4CCOCC4)c([N+](=O)[O-])c3)n2)cc1 -6.03%
Cc1ccc(C(=O)c2oc3ccccc3c2NC(=O)COc2ccccc2C)cc1 7.69%
O=[N+]([O-])c1cc(-c2nc(-c3ccccc3)no2)ccc1NCc1ccco1 -6.22%
Cn1c(=O)c2cc(C(=O)NCCCN3CCN(c4ccc(F)cc4)CC3)sc2c2ccccc21 -3.62%
COCCCNC(=O)c1c(NC(=O)Cc2coc3cc(C)ccc23)sc2c1CCCC2 13.5%
COc1ccc(C(=O)/C=C/c2cn(CC(O)CN3CCCCCC3)c3ccccc23)cc1OC (configuration not stated) -1.27%
Cc1ccc(C2CC(=O)N(Cc3ccc(F)cc3)c3c2c(C)nn3-c2nc(C)cc(C)n2)cc1 (configuration not stated) -14.4%
COc1ccc(CCNC(=O)CCCn2c(=O)c3ccccc3n(CC(=O)Nc3ccccc3C)c2=O)cc1OC -8.46%
N[C@H](Cc1c[nH]c2ccccc12)C(=O)O -14.1%
Cc1ccccc1CNC(=O)CN1C(=O)CCCc2ccccc21 14%
Cc1ccc2scc(N3CCCCC3C)c(=O)c2c1 (configuration not stated) -14.2%
O=C(CN1CCN(Cc2ccc(F)cc2)C1=O)NCc1ccc(F)cc1 -10.7%
COc1ccc(Cn2c(SCC(=O)N3CCN(c4ccc(F)cc4)CC3)nc3ccccc32)cc1 2.49%
CCc1ccccc1NC(=O)CN(c1ccccc1OC)S(=O)(=O)c1ccc(C)cc1 -11.8%
COCCNC(=O)Cn1c(-c2cccs2)cc2cc(Cl)ccc21 -10.1%
Cc1ccsc1CN(C(=O)COc1ccccc1Cl)C1CCS(=O)(=O)C1 (configuration not stated) -4.46%
O=C(COc1ccccc1)N(Cc1cccnc1)c1nc2c(F)cc(F)cc2s1 -1.29%
Cc1sc(C2C(C#N)=C(N)N(c3ccc(Cl)cc3)C3=C2C(=O)CCC3)cc1CN1CCOCC1 (configuration not stated) -15.5%
CC1CCN(S(=O)(=O)c2ccc3c(c2)N(CC(=O)NCCCOC(C)C)C(=O)CO3)CC1 -5.35%
COCCNC(=O)CN1C(=O)COc2ccc(S(=O)(=O)N3CCCCCC3)cc21 -14.3%
CCC(C(=O)NC1CCCCC1)n1c(SCc2ccccc2F)nc2ccncc21 (configuration not stated) -6.84%
CCOC(=O)CSc1nc2sc3c(c2c(=O)n1Cc1ccccc1)CC(C(C)C)OC3 (configuration not stated) -5.33%
CCC(C)NC(=O)CCCn1c(=O)c2cccn2c2ccccc21 (configuration not stated) -13.2%
CCN(Cc1ccccc1)c1nc2c(S(=O)(=O)c3ccccc3)nnn2c2ccc(Cl)cc12 -21.9%
Cc1nn(C(C)C(=O)NCCc2ccccc2)c(=O)c2c1sc1ccccc12 (configuration not stated) 4.43%
Cc1ccccc1C(=O)Nc1cccc(NC(=O)c2ccc(C(C)(C)C)cc2)c1 -8.64%
CCc1ccc(NC(=O)CSc2ccc(-c3sc(-c4ccccc4)nc3C)nn2)cc1 -13.6%
